Test results reported in paper PMC7819943, “Rice protein-binding microarrays: a tool to detect cis-acting elements near promoter regions in rice”.
The list shows a part of the results.

What follows are sequences tested against T1, OsWOX13 (Oryza sativa, UniProt Q5QMM3 1-267) (assay: protein-binding microarray (RPBM); PBS, 2% BSA, 51.3 ng/ul salmon testes DNA, 50 uM zinc acetate, 200 nM TF, 25 C, 1 h; high values mean tight binding). Conditions: protein: recombinant; tags: N-terminal polyhistidine and DsRed monomer fusion (pET32a); label: CyDye5-dUTP incorporated in the synthesized complementary strand; 3' TTTTT single-stranded linker to array surface; dsDNA, one strand shown.
T1 sequence: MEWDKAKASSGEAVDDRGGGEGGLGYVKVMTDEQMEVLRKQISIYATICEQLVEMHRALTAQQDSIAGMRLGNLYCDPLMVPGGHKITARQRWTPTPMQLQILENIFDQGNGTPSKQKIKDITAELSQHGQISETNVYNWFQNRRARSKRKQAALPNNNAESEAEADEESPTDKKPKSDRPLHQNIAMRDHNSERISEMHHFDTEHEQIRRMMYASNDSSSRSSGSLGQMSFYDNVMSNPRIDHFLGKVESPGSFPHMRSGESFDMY
Outline: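 Transcription factors, each fused N-terminally to a polyhistidine tag and DsRed, were expressed in E. coli BL21-CodonPlus and purified on Ni–NTA. A custom Agilent array was made double-stranded by primer extension with Cy5-dUTP and blocked with 2% BSA. It was incubated with 200 nM protein in PBS, 2% BSA, salmon testes DNA and 50 µM zinc acetate at 25 °C for 1 h, then washed. The binding signal is per-feature fluorescence intensity (arbitrary units) read on an Axon 4000B scanner.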

Sequence	binding signal
TTTCATAATTTGTCAGCAGCTATAATATTTTCGCTGAATACGGAGTCACCTAGTGCAG	3870 fluorescence intensity (a.u.)
TCGTTTCGTGGAATTTAATTAAATTTATTTTAAGGATTTTCGGAGTCACCTAGTGCAG	3940 fluorescence intensity (a.u.)
CCTGTAATTTATTTTGTTATTAGTCTACGTTTAATACTTCCGGAGTCACCTAGTGCAG	22800 fluorescence intensity (a.u.)
GTCTTAAGTTGATTTATATCATCTACTATTTTCGTTCCAACGGAGTCACCTAGTGCAG	10800 fluorescence intensity (a.u.)
AACTGCATCCATCGATTGATAGATACATGCACATAGCTGCCGGAGTCACCTAGTGCAG	7580 fluorescence intensity (a.u.)
AACAATCTAATTAATGTGAAATATTTTCTCTGTTACAAAACGGAGTCACCTAGTGCAG	12700 fluorescence intensity (a.u.)
TTGATGTTAATGAATCTAAATAGATATGTATGTCTAGATACGGAGTCACCTAGTGCAG	5640 fluorescence intensity (a.u.)
AGGTTTGACTGGTAGATATGATCGGACCGGTAGCTGAGAGCGGAGTCACCTAGTGCAG	13700 fluorescence intensity (a.u.)
ATTACTTATCTGATTTACGATCCGACTTAACCACTGTATTCGGAGTCACCTAGTGCAG	4150 fluorescence intensity (a.u.)
TTGTGTCAATCACTTTTCTCAACACTAGATCAATATCCTACGGAGTCACCTAGTGCAG	24400 fluorescence intensity (a.u.)
ATATGATTGGGATTGTCATCCCTTGGGTGGGTACGGATTGCGGAGTCACCTAGTGCAG	51600 fluorescence intensity (a.u.)
ATCAACAATTAAATTTAATTGACTATTGTTAGAGTGCCAACGGAGTCACCTAGTGCAG	47500 fluorescence intensity (a.u.)
AAAATATATAATTATTATTTATTTTATTATGACATGATATCGGAGTCACCTAGTGCAG	17400 fluorescence intensity (a.u.)
GAGATAATTTCGTGAATAAAGAAACCAGACGGTGCACGTACGGAGTCACCTAGTGCAG	7660 fluorescence intensity (a.u.)
CAGGTCTAATGATTGATTGCAAAGTTAGTTATAGCATACACGGAGTCACCTAGTGCAG	42400 fluorescence intensity (a.u.)
GAGGCGTGCTGATTGGACAAGCTAGCTAGCAATATAATGCCGGAGTCACCTAGTGCAG	11900 fluorescence intensity (a.u.)
AGGTAGTAGTAAATTACTTTCAATCCTAATTCATTTGTACCGGAGTCACCTAGTGCAG	3340 fluorescence intensity (a.u.)
GAATGATTTTACTGCCTTGCTAGAACTTCCAAAGATACCCCGGAGTCACCTAGTGCAG	5280 fluorescence intensity (a.u.)
TTATGGCTAATCATGAACTAATTAGACTCAAAAGATTCGTCGGAGTCACCTAGTGCAG	23700 fluorescence intensity (a.u.)
ATATGAATTGGCTATTAAATTGGTTATAGATGATTTGGAGCGGAGTCACCTAGTGCAG	31100 fluorescence intensity (a.u.)
ACTAGCTAACTAAATTTGAAAGAGACTAGCTAGCTGCTTGCGGAGTCACCTAGTGCAG	6300 fluorescence intensity (a.u.)

Sequence	binding signal
TTGATAACAAAATCATCATATATTTGTTAATTTTATCAAACGGAGTCACCTAGTGCAG	5380 fluorescence intensity (a.u.)
CACCGTGTTAATTTCAATTCGGAGTTTCGGGGTGTGGCACCGGAGTCACCTAGTGCAG	5740 fluorescence intensity (a.u.)
ATTAATGTACACGTGCCTTCAATTATATATCCGATACCAACGGAGTCACCTAGTGCAG	5010 fluorescence intensity (a.u.)
GAGATAGACCTAGGATTGTCTGTTATTGTCCTGTATCAGTCGGAGTCACCTAGTGCAG	3650 fluorescence intensity (a.u.)
CTTAATTTAGAGTTGATTTTGGAGTTTCTTTTATCGTAGTCGGAGTCACCTAGTGCAG	39500 fluorescence intensity (a.u.)
ATATATATATATATATATATATATATATATATATATCTGTCGGAGTCACCTAGTGCAG	19500 fluorescence intensity (a.u.)
CTTTAAAATTGATTTGTCATCTAACTATGCTGTTGTCATGCGGAGTCACCTAGTGCAG	45400 fluorescence intensity (a.u.)
CATGTTAATTTGCTCTCCCCGGTAACACTTCATTCTTGAACGGAGTCACCTAGTGCAG	19000 fluorescence intensity (a.u.)
TTTGACATTAATCCAAACAGGTATCAACAAGAGATTACGTCGGAGTCACCTAGTGCAG	5300 fluorescence intensity (a.u.)
AGAAGCTAATTAAGTGGACTGACAATATAAAAGAGGAGATCGGAGTCACCTAGTGCAG	7280 fluorescence intensity (a.u.)
AAGTGATCACTAATTAGGGATGGAGGTAGTAGAAGACTTCCGGAGTCACCTAGTGCAG	11500 fluorescence intensity (a.u.)
TGAATGATTGCTCTTGTGCTAAGAGAATAGACTTTATCCCCGGAGTCACCTAGTGCAG	32000 fluorescence intensity (a.u.)
ATTGAGCCAGATTGAATGGGTGAAAGTTGTATACTGTAAACGGAGTCACCTAGTGCAG	5350 fluorescence intensity (a.u.)
AATAGATTAATCGATTAATAGTAAACCACTTCAATGGTATCGGAGTCACCTAGTGCAG	20000 fluorescence intensity (a.u.)
TTTCCACAATTAATTCCATTCCAATCCTCGTAATCTCCCCCGGAGTCACCTAGTGCAG	5610 fluorescence intensity (a.u.)
GTCGCTGTTAATTAATTGACGCCAAGTCCACGGTAAGTTTCGGAGTCACCTAGTGCAG	43100 fluorescence intensity (a.u.)
ACTAATTGTACAATTAGAGGAGAAATCGCGAGACGAATCTCGGAGTCACCTAGTGCAG	31000 fluorescence intensity (a.u.)
TATGAATTGACTATTATATTGGCTATGGATGATTTGTAGTCGGAGTCACCTAGTGCAG	30100 fluorescence intensity (a.u.)
AATTGGCTATTAAATTAACTATAGATAATTTAAAGATAATCGGAGTCACCTAGTGCAG	12600 fluorescence intensity (a.u.)
TCCTCTCATTTTAATCTATTTATCGTGGATCCCATTCCGACGGAGTCACCTAGTGCAG	3460 fluorescence intensity (a.u.)
AACAAAATTTACTCAATAAGGTATAAATAGAAAATCGACCCGGAGTCACCTAGTGCAG	5440 fluorescence intensity (a.u.)
